Experimental data taken from PubChem BioAssay AID504466 (National Center for Advancing Translational Sciences (NCATS), 2011).
The whole screen tested about 330,000 compounds, of which about 4,200 (1.3%) were called active. Inconclusive results, whose numbers are uncertain, are shown with a selection of clear calls. The call rests on the fitted dose curve; in most records, active means well fitted activation curve with a large enough effect; inconclusive means small, poorly fitted or top-dose-only effect; inactive means no such curve, though single readings can be large or run the other way. Potencies of inconclusive entries are doubtful fits and often do not repeat.

Experiment: qHTS screen for small molecules that induce genotoxicity in human embryonic kidney (HEK293T) cells expressing luciferase-tagged ELG1; further: nearly all actives have a fitted effect of over 60% in size; on activity change, positive = activation: % of control where 0% means no effect
Conditions: HEK293T ELG1-luciferase reporter, luminescence, 16 h; series mostly up to 46 µM; activity change, positive = activation: at the top concentration
In short: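 Luminescence read-out: rising ELG1-luciferase signal, reflecting elevated ELG1 protein under genetic stress, flags genotoxic compounds. Cells were treated for 16 hr at 37 °C before ONE-Glo detection.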
Potency means the concentration at half of the fitted maximal effect; tags describe the fitted curve by direction and shape.

| Compound | activity change, positive = activation | Potency |
| --- | --- | --- |
| Cc1nnc(SCC(=O)N2c3ccccc3C(C)(c3ccccc3)CC2(C)C)s1 (configuration not stated) | inactive: 0.132% | – |
| CC(=O)C(/C=N/c1cc(-c2ccc(C)cc2)nn1-c1ccccc1)=C(\C)O | – | inconclusive: 4.11 µM [activator, partial curve] |
| CSc1nc(N)n2nc(-c3ccccc3)cc2n1 | – | active: 10.3 µM |
| COc1cc2c(C#N)c(N3CCCCC3)nc(N)c2c(N)n1 | – | inconclusive: 18.4 µM [activator, partial curve] |
| Cc1nn(-c2ccccc2)c(C)c1CCC(=O)O | – | inconclusive: 16.4 µM [activator, partial curve, poor fit] |
| Cc1ccc(SCc2nn(C)c(Cl)c2C=O)cc1 | – | inconclusive: 11.2 µM [activator, partial curve, poor fit] |
| N#CCCn1cc(C(=O)Nc2ccc(C(=O)O)cc2)c(-c2cccc(Br)c2)n1 | inactive: -0.391% | – |
| Nc1ccc(/C=C/c2ccc3ncccc3c2)cc1 | – | inconclusive: 1.64 µM [activator, partial curve] |
| COc1ccc(OCC(O)Cn2c(Br)nc3c2c(=O)[nH]c(=O)n3C)cc1 (configuration not stated) | – | inconclusive: 32.6 µM [activator, partial curve, poor fit] |
| CCOc1ccc(NC(=O)CCC(=O)NNC(=O)COc2ccc(C)cc2Br)cc1 | – | inconclusive: 18.3 µM [activator, partial curve] |
| O=C(Nc1ccc(SC(F)F)cc1)C1=COCCO1 | – | active: 2.59 µM |
| Cn1cccc1CC(=O)N/N=C/C=C/c1ccccc1 | – | inconclusive: 23.1 µM [activator, partial curve, poor fit] |
| c1cc(Nc2cccc3nccnc23)c2nccnc2c1 | – | inconclusive: 13 µM [activator, partial curve, poor fit] |
| c1ccc(-c2cc(CSc3nc4ccccc4[nH]3)on2)cc1 | – | inconclusive: 32.6 µM [activator, partial curve, poor fit] |
| COc1ccc(CNS(=O)(=O)c2ccc3c(c2)NC(=O)CS3)cc1 | inactive: -3.9% | – |
| CN1C(=O)/C(=N/OC(=O)c2ccccc2)c2ccccc21 | inactive: 0.0204% | – |
| O=C(CNC(=O)C1COc2ccccc2O1)N/N=C/c1ccc(O)cc1O (configuration not stated) | – | inconclusive: 29.1 µM [activator, single point] |
| Cc1cc(C(=O)COC(=O)c2ccc(NC(=O)CC#N)cc2)c(C)n1CCc1ccc(F)cc1 | inactive: -0.0135% | – |
| OC(COc1ccc2c(c1)CCC2)Cn1cnc2ccccc21 (configuration not stated) | – | inconclusive: 23.1 µM [activator, single point] |
| COc1ccc(C2NC(=O)NC(C)=C2C(=O)OCc2ccc3c(c2)OCO3)cc1OC (configuration not stated) | inactive: 9.34% | – |
| O=[N+]([O-])c1ccc(N2CCc3ccccc3C2)nc1 | – | inconclusive: 20.6 µM [activator, single point] |
| CN(C)/C=C/C(=O)c1cnc(-c2ccccc2Cl)s1 | – | inconclusive: 14.6 µM [activator, partial curve] |
| CCOc1ccc(N=c2scc(-c3ccc(OC)cc3)n2CCO)cc1 | inactive: 10.7% | – |
| O=C(Cc1ccc(Br)cc1)c1ccc(O)cc1O | – | inconclusive: 18.4 µM [activator, single point] |

| Compound | activity change, positive = activation | Potency |
| --- | --- | --- |
| O=C(NCc1ccccc1)c1cc(-c2cccc(O)c2)on1 | – | inconclusive: 20.6 µM [activator, partial curve, poor fit] |
| COc1ccc(NC(=O)CN2C(=O)NC3(CCCCCC3)C2=O)cc1Cl | inactive: 2.79% | – |
| COc1ccc(NC(=O)c2ccc3nc[nH]c3c2)cc1 | inactive: 22.4% | – |
| CNc1nc(N2CCc3ccccc32)ncc1F | – | inconclusive: 14.6 µM [activator, partial curve] |
| C=C1CCN([C@@H](C)C(=O)NCc2ccc(Cl)cc2)S(=O)(=O)c2ccccc21 | inactive: -5.29% | – |
| CCn1c(C)nc2c(C)[n+](CC(=O)c3ccc(Br)cc3)ccc21 | – | active: 1.83 µM |
| Cc1ccc(-n2nnc(-c3cnc4ccccc4c3)n2)cc1 | – | active: 1.64 µM |
| Cc1ccc(-n2cc(C(=O)c3ccccc3O)cn2)cc1 | – | inconclusive: 1.16 µM [activator, partial curve] |
| Cc1ccc(-c2cc3c(n2-c2ccc(C(=O)O)cc2)CCCC3=O)cc1 | – | inconclusive: 29.1 µM [activator, partial curve, poor fit] |
| Clc1ccc(-c2nsc(N3CCOCC3)n2)c(Cl)c1 | – | active: 3.26 µM |
| CN1CCN(C(=O)c2cc(COc3ccccc3)on2)[C@@H](c2ccccc2)C1 | – | active: 13 µM |
| Clc1ccc(/C(Cc2nc3ccccc3[nH]2)=N\Nc2ccccc2)cc1 | – | inconclusive: 3.26 µM [activator, full curve, poor fit] |
| CCCCNC(=O)C(C)N(CCN(C)C)C(=O)CCCN1C(=O)NC(c2ccc(Cl)cc2)C(C(=O)OCc2ccccc2)=C1C (configuration not stated) | – | inconclusive: 23.1 µM [activator, single point] |
| CCOC(=S)SCC(=O)N1CCc2cc(OC)ccc2C1C1C(=O)CCCC1=O (configuration not stated) | – | inconclusive: 25.9 µM [activator, partial curve, poor fit] |
| CC(C)CNC(=O)c1ccc2c(c1)C(=O)N(Cc1ccco1)C2=O | inactive: 0.911% | – |
| O=C(COc1ccccc1)Nc1nnc(-c2ccc3c(c2)CCCC3)o1 | – | active: 18.4 µM |
| O=C1c2ccccc2C(=O)c2c1cccc2N1CCOCC1 | – | inconclusive: 16.4 µM [activator, partial curve, poor fit] |
| Cc1cc(Br)ccc1OCc1nc(-c2cccnc2)no1 | – | active: 20.6 µM |
| CCOc1ccc(N2C(=O)c3ccccc3C2O)cc1 (configuration not stated) | – | active: 9.2 µM |
| CCOc1ccc(-c2nnc(-c3cccs3)o2)cc1OCC | – | inconclusive: 9.2 µM [activator, single point] |
| N#CCC(=O)Nc1nc(-c2ccc3c(c2)OCCO3)cs1 | – | inconclusive: 23.1 µM [activator, single point] |
| c1ccc(CSc2ncnc3c2cnn3-c2ccccc2)cc1 | – | inconclusive: 25.9 µM [activator, single point] |
| S=C(N/N=C/c1ccc(Cl)c(Cl)c1)Nc1ccccc1Cl | – | inconclusive: 20.6 µM [activator, single point] |
| COc1ccc(C(=O)N/N=C/c2sc3ccccc3c2O)cc1 | – | inconclusive: 29.1 µM [activator, single point] |

| Compound | activity change, positive = activation | Potency |
| --- | --- | --- |
| NS(=O)(=O)c1ccc(CNC(=O)C(Cc2ccccc2)NS(=O)(=O)c2ccccc2F)cc1 (configuration not stated) | inactive: -2.16% | – |
| Cc1cc(C)c(C#N)c(SCCS(=O)(=O)Cc2ccccc2)n1 | – | inconclusive: 20.6 µM [activator, partial curve, poor fit] |
| Cc1ccc(-c2nc3ccccc3c(=O)o2)cc1 | – | inconclusive: 18.3 µM [activator, single point] |
| COC(=O)c1ccc(COc2ccc(CNCc3ccc(Cl)cc3)cc2)cc1 | – | inconclusive: 7.3 µM [activator, partial curve, poor fit] |
| Cc1ccc(CNS(=O)(=O)c2c(C(=O)N3CCCCCC3)c(C)n(C)c2C)cc1 | inactive: -1.56% | – |
| COc1cc(/C=N/NC(=O)c2cc(C34CC5CC(CC(C5)C3)C4)[nH]n2)ccc1O | – | inconclusive: 16.4 µM [activator, partial curve, poor fit] |
| CCCCc1ccc(NC(=O)CSc2nc(=O)n(CCN(CC)CC)c3c2CCCC3)cc1 | – | inconclusive: 23.1 µM [activator, partial curve, poor fit] |
| Cn1cccc1C(=O)OCc1cc(-c2ccco2)on1 | – | inconclusive: 18.3 µM [activator, single point] |
| O=C(CSc1nnc(-c2ccccn2)o1)Nc1ccc(F)cc1 | – | inconclusive: 23.1 µM [activator, partial curve] |
| Cc1cccc(Cc2nnc(CCC(=O)N(CC3CC3)CC3CCCO3)o2)c1 (configuration not stated) | – | inconclusive: 29.1 µM [activator, single point] |
| CC(C)c1ccc(/C=C/c2ccc(=O)n(C)n2)cc1 | – | active: 10.3 µM |
| CCOC(=O)N1CCN(C(=O)CS(=O)(=O)c2cn(Cc3ccc(Cl)cc3)c3ccccc23)CC1 | inactive: -27.1% | – |
| Oc1ccc(/C=N/NC(=S)Nc2cccnc2)c(O)c1 | – | inconclusive: 29.1 µM [activator, partial curve, poor fit] |
| CCc1ccc(NC(=O)c2cnc3n(c2=O)CCS3)cc1 | – | active: 9.2 µM |
| O=C1CCc2cc(NS(=O)(=O)c3ccc(F)cc3)cc3c2N1CC3 | – | inconclusive: 18.3 µM [activator, partial curve, poor fit] |
| CC1CCc2nc(NC(=O)CN3CCOCC3)sc2C1 (configuration not stated) | – | inconclusive: 20.6 µM [activator, partial curve] |
| Cc1cc(C)nc(NC(=O)Nc2ccc(F)cc2F)n1 | – | inconclusive: 14.6 µM [activator, partial curve] |
| CCOC(=O)c1[nH]c(C)c(C(=O)Nc2ccccc2F)c1C | – | inconclusive: 23.1 µM [activator, partial curve, poor fit] |
| CC(=O)c1cccc(NC(=O)CNC(=O)c2cc3ccccc3o2)c1 | – | inconclusive: 20.6 µM [activator, partial curve, poor fit] |
| Cc1c(Cl)cccc1NC(=O)CN1CCN(CCN=CC2=C(O)CC(c3ccccc3)CC2=O)CC1 (configuration not stated) | inactive: 15.1% | – |
| Cc1ccc(Nc2cc(C)nc3nnnn23)cc1 | inactive: -3.43% | – |
| CCCCCOc1ccc(NC2=CC(=O)CCC2)cc1 | inactive: 2.5% | – |
| Cc1coc2cc3oc(=O)c(CCC(=O)NC4CC4)c(C)c3cc12 | inactive: 1.3% | – |
| Cc1cccc2nc(COc3ccc4ccccc4c3Br)cn12 | – | inconclusive: 6.51 µM [activator, partial curve] |
